Laboratory results: the supplement of paper PMC12009370
The list shows a part of the results. Repeats are few or missing, and single values can be far off.

Key:
IMR-32 [1] = assay: drug sensitivity score (DSS), single drug with vehicle (DSS (score)); higher = more cytotoxic; extreme values may be limits of the assay; conditions: 72 h; co-treatment: vehicle (DMSO)
SK-N-AS [2] = assay: as above; conditions: 72 h; co-treatment: vehicle (DMSO)
SK-N-AS [3] = assay: drug sensitivity score (DSS) in combination with SL-176 (DSS (score)); higher = more cytotoxic; extreme values may be limits of the assay; conditions: 72 h; co-treatment: SL-176 11.2 uM (IC25 in IMR-32)
IMR-32 [4] = assay: as above; conditions: 72 h; co-treatment: SL-176 11.2 uM (IC25 in IMR-32)
SK-N-AS [5] = assay: drug sensitivity score (DSS) in combination with GSK2830371 (DSS (score)); neuroblastoma lines; SL-176 and GSK2830371 are WIP1 inhibitors; higher = more cytotoxic; extreme values may be limits of the assay; conditions: 72 h; co-treatment: GSK2830371 at IC25 in IMR-32
IMR-32 [6] = assay: as above; conditions: 72 h; co-treatment: GSK2830371 at IC25 in IMR-32
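Throughout, for drug sensitivity score (DSS) in combination with GSK2830371: neuroblastoma cells in 384-well plates, each compound at five concentrations, luminescence read-out, DSS derived from fitted concentration-response curve combining IC50 with minimum and maximum inhibition.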
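Throughout, for drug sensitivity score (DSS) in combination with SL-176: cells in 384-well plates, luminescence read-out, each screening drug at five concentrations, DSS derived from the fitted concentration-response curve combining IC50 with minimum and maximum inhibition.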
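Throughout, for drug sensitivity score (DSS), single drug with vehicle: 384-well screen with five concentrations per compound and a luminescence read-out, DSS computed from the fitted dose-response curve combining IC50 with minimum and maximum inhibition.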

Row | Structure (SMILES) | drug sensitivity score (IMR-32 [1]) | drug sensitivity score (SK-N-AS [2]) | drug sensitivity score (SK-N-AS [3]) | drug sensitivity score (IMR-32 [4]) | drug sensitivity score (SK-N-AS [5]) | drug sensitivity score (IMR-32 [6])
1 | C[C@@H]1COCCN1c1cc(C2([S@](C)(=N)=O)CC2)nc(-c2cc[nH]c3nccc2-3)n1 | 15.9 | 15.3 | 14 | 16.1 | 14.1 | 16.5
2 | Cc1ncc(-c2ccnc(Nc3ccc(S(C)(=O)=O)cc3)n2)n1C(C)C | 13 | 5.6 | 6.9 | 14 | 6.8 | 13.3
3 | CN1CCC(COc2cnc(-c3cccc(Cn4nc(-c5cccc(C#N)c5)ccc4=O)c3)nc2)CC1 [Tepotinib] | 0 | 0.2 | 0 | 0.2 | 0 | 0
4 | COc1cc(OC)cc(N(CCNC(C)C)c2ccc3ncc(-c4cnn(C)c4)nc3c2)c1 [Erdafitinib] | 0 | 0 | 0 | 0.4 | 0 | 3.6
5 | O=C(O)CC[C@H]1CC[C@@](c2cc(F)ccc2F)(S(=O)(=O)c2ccc(Cl)cc2)CC1 | 4.8 | 0 | 0 | 0.6 | 0 | 0
6 | Oc1ccc2c(c1)CC[C@H](c1ccccc1)[C@@H]2c1ccc(OCCN2CCCC2)cc1 [Lasofoxifene] | 0 | 0 | 0.6 | 0 | 1.3 | 0
7 | CNC(=O)c1ccc(N2C(=S)N(c3cnc(C#N)c(C(F)(F)F)c3)C(=O)C23CCC3)cc1F [Apalutamide] | 0.4 | 0 | 0 | 0.3 | 0 | 0
8 | Oc1nc(-c2ccc(C(F)(F)F)cc2)nc2c1CSCC2 | 0 | 0 | 0 | 0 | 0 | 1.7
9 | Cn1c(=O)n(-c2ccc(C(C)(C)C#N)cc2)c2c3cc(-c4cnc5ccccc5c4)ccc3ncc21 [Dactolisib] | 12.8 | 16.8 | 16.6 | 13.5 | 16.7 | 15.8
10 | CC(C)c1cc(-c2n[nH]c(=O)n2-c2ccc3c(ccn3C)c2)c(O)cc1O [Ganetespib] | 14.2 | 19.2 | 24.1 | 14.8 | 18.5 | 13.8
11 | Cc1cc(Nc2nc(N[C@@H](C)c3ncc(F)cn3)ncc2Cl)[nH]n1 | 2.7 | 1 | 0.8 | 4.2 | 0.7 | 4.9
12 | COc1cc2c(cc1OC(C)C)[C@H](c1ccc(Cl)cc1)N(c1ccc(N(C)C[C@H]3CC[C@H](N4CCN(C)C(=O)C4)CC3)cc1)C(=O)C2 | 21.6 | 4.8 | 6.4 | 23 | 6.2 | 24.8
13 | CCN(CC)CCCC(C)Nc1c2ccc(Cl)cc2nc2ccc(OC)cc12 (stereo not drawn) [Mepacrine] | 17.5 | 13.2 | 13.9 | 17.9 | 13.1 | 17.5
14 | O=c1[nH]c(=O)n([C@H]2C[C@H](O)[C@@H](CO)O2)cc1F [Floxuridine] | 28.5 | 5.2 | 6.3 | 23.2 | 6.2 | 33
15 | C[C@H]1CN(C2COC2)CCN1c1ccc(Nc2cc(-c3ccnc(N4CCn5c(cc6c5CC(C)(C)C6)C4=O)c3CO)cn(C)c2=O)nc1 | 0.7 | 0 | 0 | 0 | 0 | 0
16 | CCCCCCCCCCCCCCCCOP(=O)([O-])OCC[N+](C)(C)C [Miltefosine] | 6.2 | 5.4 | 6.1 | 9.3 | 6.5 | 10.5
17 | CN[C@@H](C)C(=O)N[C@H](C(=O)N1CCC[C@H]1c1nc(C(=O)c2ccc(F)cc2)cs1)C1CCCCC1 | 0 | 4.4 | 3.2 | 0 | 3 | 0
18 | CCC1=C[C@@H]2CN(C1)Cc1c([nH]c3ccccc13)[C@@](C(=O)OC)(c1cc3c(cc1OC)N(C)[C@H]1[C@@](O)(C(=O)OC)[C@H](OC(C)=O)[C@]4(CC)C=CCN5CC[C@]31[C@@H]54)C2 [Vinorelbine] | 46.3 | 34 | 33.8 | 44.8 | 34.4 | 46.2
19 | Cc1[nH]c2ccccc2c1CCNCc1ccc(/C=C/C(=O)NO)cc1 [Panobinostat] | 23.7 | 18.9 | 17.8 | 24.2 | 18.7 | 24.9
20 | CCc1cncnc1N1CCN(Cc2nc3ccc(C(F)(F)F)cc3[nH]2)CC1 | 2.7 | 0.1 | 2.5 | 2.6 | 0 | 6.3
21 | O=C(Nc1ccc2[nH]nc(-c3ccncc3)c2c1)[C@@H]1CCN(CC(=O)N2CCN(c3ccc(-c4ncccn4)cc3)CC2)C1 | 0.8 | 22.9 | 22.5 | 3.5 | 23.6 | 4.7
22 | C=C(c1ccc(C(=O)O)cc1)c1cc2c(cc1C)C(C)(C)CCC2(C)C [Bexarotene] | 11.2 | 0 | 2.4 | 4.5 | 0.4 | 4.8
23 | CC[C@H](NC(=O)[C@H](C)NC)C(=O)N1C[C@@H](O)C[C@H]1Cc1c(-c2[nH]c3cc(F)ccc3c2C[C@@H]2C[C@H](O)CN2C(=O)[C@H](CC)NC(=O)[C@H](C)NC)[nH]c2cc(F)ccc12 [Birinapant] | 0 | 0 | 0.5 | 0 | 0 | 0
